# Assay results reported in PubChem BioAssay AID504333 (National Center for Advancing Translational Sciences (NCATS), 2011).
# Screen size: about 360,000 compounds; about 16,000 (4.4%) were called active. The shares of active, inactive and inconclusive entries below differ from those in the screen. The call rests on the fitted dose curve; in most records, active means well fitted inhibition curve with a large enough effect; inconclusive means small, poorly fitted or top-dose-only effect; inactive means no such curve, though single readings can be large or run the other way. Potencies of inconclusive entries are doubtful fits and often do not repeat.
# Molecular target: Bromodomain adjacent to zinc finger domain protein 2B (Homo sapiens) (UniProt Q9UIF8)
# Experiment: qHTS Assay for Inhibitors of BAZ2B; further: nearly all actives have a fitted effect of over 60% in size
# Settings: AlphaScreen BAZ2B-H3K14Ac peptide displacement; activity change, negative = inhibition: at 114 µM (top of the series)
# Method in brief: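 Inhibition is scored as reduced AlphaScreen emission. The BAZ2B/b-H3(5-23)K14Ac complex (50 nM each) in PBS pH 7.4, 0.01% Tween-20 meets compound (up to 110 uM) for 30 min at RT before bead addition.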
# On the % scale 0 is the no-effect control and ±100 the full control effect; potency means the concentration at half of the fitted maximal effect; tags describe the fitted curve by direction and shape.
# Sequence of UniProt Q9UIF8 (Q9UIF8 whole entry, looked up, the tested form may be a part): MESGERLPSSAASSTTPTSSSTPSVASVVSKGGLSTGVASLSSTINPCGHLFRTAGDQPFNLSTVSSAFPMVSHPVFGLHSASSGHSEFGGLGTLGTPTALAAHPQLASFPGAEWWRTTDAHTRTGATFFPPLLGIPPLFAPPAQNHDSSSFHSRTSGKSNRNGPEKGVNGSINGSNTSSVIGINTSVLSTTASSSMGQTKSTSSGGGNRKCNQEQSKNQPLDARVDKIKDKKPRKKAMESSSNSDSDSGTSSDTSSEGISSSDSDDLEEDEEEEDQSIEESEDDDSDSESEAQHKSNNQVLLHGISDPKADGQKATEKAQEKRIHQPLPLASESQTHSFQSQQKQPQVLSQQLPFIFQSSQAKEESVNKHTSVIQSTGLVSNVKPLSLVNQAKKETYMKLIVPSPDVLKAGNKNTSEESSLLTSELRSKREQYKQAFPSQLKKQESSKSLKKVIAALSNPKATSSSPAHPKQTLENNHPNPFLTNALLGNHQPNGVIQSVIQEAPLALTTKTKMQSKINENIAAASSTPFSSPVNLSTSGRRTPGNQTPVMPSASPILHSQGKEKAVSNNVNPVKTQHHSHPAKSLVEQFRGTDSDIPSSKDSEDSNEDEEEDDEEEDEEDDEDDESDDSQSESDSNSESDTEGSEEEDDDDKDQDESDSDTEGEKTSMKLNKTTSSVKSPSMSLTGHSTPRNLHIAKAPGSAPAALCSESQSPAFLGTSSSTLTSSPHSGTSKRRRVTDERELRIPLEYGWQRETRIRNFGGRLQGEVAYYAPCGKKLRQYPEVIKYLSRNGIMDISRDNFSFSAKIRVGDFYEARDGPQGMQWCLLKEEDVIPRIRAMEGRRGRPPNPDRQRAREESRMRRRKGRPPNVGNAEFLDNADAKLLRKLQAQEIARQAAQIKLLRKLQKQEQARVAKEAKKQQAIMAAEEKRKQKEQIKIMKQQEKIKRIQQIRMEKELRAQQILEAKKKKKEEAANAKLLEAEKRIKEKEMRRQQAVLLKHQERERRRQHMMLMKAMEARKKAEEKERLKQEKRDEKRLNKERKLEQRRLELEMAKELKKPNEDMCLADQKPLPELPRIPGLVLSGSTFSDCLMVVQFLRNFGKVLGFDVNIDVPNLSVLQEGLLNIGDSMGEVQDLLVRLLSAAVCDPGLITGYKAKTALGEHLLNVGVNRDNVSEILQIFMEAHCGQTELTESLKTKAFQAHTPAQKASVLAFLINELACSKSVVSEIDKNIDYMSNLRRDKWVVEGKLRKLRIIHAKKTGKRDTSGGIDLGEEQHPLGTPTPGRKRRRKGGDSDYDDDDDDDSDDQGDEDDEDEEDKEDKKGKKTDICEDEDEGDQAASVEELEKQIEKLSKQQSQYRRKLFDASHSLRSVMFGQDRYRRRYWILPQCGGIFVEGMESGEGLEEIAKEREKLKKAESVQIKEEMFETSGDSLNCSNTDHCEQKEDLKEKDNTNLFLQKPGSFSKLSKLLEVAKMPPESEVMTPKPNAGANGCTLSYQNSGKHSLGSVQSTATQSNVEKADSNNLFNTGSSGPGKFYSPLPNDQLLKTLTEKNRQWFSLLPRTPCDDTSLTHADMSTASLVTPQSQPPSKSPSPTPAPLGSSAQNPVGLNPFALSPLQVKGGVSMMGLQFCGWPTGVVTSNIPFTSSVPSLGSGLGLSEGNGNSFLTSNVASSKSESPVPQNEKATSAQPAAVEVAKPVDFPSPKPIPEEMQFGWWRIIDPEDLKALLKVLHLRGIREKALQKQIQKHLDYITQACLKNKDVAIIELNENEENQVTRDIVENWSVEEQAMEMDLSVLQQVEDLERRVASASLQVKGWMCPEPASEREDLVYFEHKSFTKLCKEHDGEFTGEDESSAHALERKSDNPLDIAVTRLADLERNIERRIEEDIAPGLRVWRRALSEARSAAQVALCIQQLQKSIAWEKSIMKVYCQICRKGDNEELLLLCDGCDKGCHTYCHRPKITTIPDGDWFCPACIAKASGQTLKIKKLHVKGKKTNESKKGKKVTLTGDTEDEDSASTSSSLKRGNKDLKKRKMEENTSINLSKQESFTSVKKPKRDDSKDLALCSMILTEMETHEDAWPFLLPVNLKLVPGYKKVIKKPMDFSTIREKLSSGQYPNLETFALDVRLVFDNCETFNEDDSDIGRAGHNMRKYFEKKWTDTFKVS
Compound,Potency,"activity change, negative = inhibition"
Cc1ccc2c(=O)cc(C(=O)Nc3sc4c(c3C(=O)NCc3cccnc3)CCCC4)oc2c1,inactive,
Fc1ccc(-c2nc(-c3cccs3)[nH]c2-c2ccc(F)cc2)cc1,active: 44.7 µM,
CCCc1nnc(NC(=O)CCCN2C(=O)c3ccccc3C2=O)s1,inactive,
CCOC(=O)c1ccc(NC(=O)C2=C(C)C(=O)OC23CCN(C(C)C)CC3)cc1,inactive,
Cc1cc(=O)c(C(=O)O)cn1-c1ccc(C(C)C)cc1,"inconclusive: 89.1 µM [inhibitor, single point]",
Cc1ccc(OCc2cc(C(=O)N3CCN(CC(=O)NC(C)C)CC3)no2)cn1,inactive,
CCOc1ccc(NC2c3ccccc3C(=O)N2Cc2ccc3c(c2)OCO3)cc1 (stereo unspecified),active: 15.8 µM,
CCC1=NN2C(=N)/C(=C\c3cccn3-c3ccc(Cl)cc3)C(=O)N=C2S1,"inconclusive: 8.91 µM [inhibitor, full curve]",
CC(C)N1CCc2c(sc(NC(=O)CCS(=O)(=O)c3ccccc3)c2C#N)C1,inactive,
Cc1ccn2c(Nc3ccccc3)c(-c3c[nH]c4ccccc34)nc2c1,active: 10 µM,
Cc1c(CN(C)C)c2c(n1Cc1ccccc1)C(=O)c1ccc(Br)cc1-2,active: 22.4 µM,
COCCN1C(=O)C(O)=C(C(C)=O)C1c1ccc(OC)c(OC)c1 (stereo unspecified),"inconclusive: 89.1 µM [inhibitor, single point]",
Cc1cccc(N2C(=O)C(O)=C(C(=O)c3cccs3)C2c2ccc(Cl)cc2)n1 (stereo unspecified),"inconclusive: 31.6 µM [inhibitor, partial curve]",
Cc1ccc(C(=O)NCC(=O)OCC(=O)NCCc2ccccc2)s1,"inconclusive: 79.4 µM [inhibitor, single point]",
COc1ccccc1Nc1nn2c(=O)c3ccc(C(=O)NCCc4ccccc4)cc3nc2s1,"inconclusive: 89.1 µM [inhibitor, single point]",
Cc1ccc(N2CCN(c3nc4ccc(C(=O)c5ccccc5)cc4n4cnnc34)CC2)c(C)c1,"inconclusive: 63.1 µM [inhibitor, partial curve, poor fit]",
COc1cccc(=O)c2c(C)n(CC(=O)c3ccccc3)c(C)c12,"inconclusive: 50.1 µM [inhibitor, partial curve]",
CCNC(=O)C1(c2ccccc2)CCCC1,"inconclusive: 89.1 µM [inhibitor, single point]",
O=C(CSc1ccc(Br)cc1)NC1CCS(=O)(=O)C1 (stereo unspecified),inactive,
Cc1ccc(S(=O)(=O)NN2C(=O)/C(=C/c3cccs3)SC2=S)cc1,"inconclusive: 44.7 µM [inhibitor, partial curve]",
CC(=O)Nc1cccc(-c2nnc(SCC(=O)c3cc([N+](=O)[O-])ccc3Cl)o2)c1,"inconclusive: 17.8 µM [inhibitor, full curve]",
CC(C)(CNc1ccc(S(=O)(=O)C(F)(F)F)cc1[N+](=O)[O-])N1CCOCC1,inactive,
COc1cccc(N2CCN(C(=O)c3ccc4nc(N5CCC(C)CC5)sc4c3)CC2)c1,"inconclusive: 12.6 µM [inhibitor, full curve]",

Compound,Potency,"activity change, negative = inhibition"
O=C(O)/C(=C\C(=O)c1ccccc1)Nc1ccccc1,active: 79.4 µM,
Cc1cc(C(=O)OCC(=O)NCc2ccco2)c(C)n1-c1ccc(F)cc1,"inconclusive: 50.1 µM [inhibitor, partial curve]",
O=C(NCC(c1ccc2c(c1)OCO2)N1CCN(c2ccccc2)CC1)C(=O)Nc1ccccc1F (stereo unspecified),"inconclusive: 15.8 µM [inhibitor, full curve]",
CC(C)Oc1ccc(CNC(=O)c2cnc3sc(N4CCCC4)nn3c2=O)cc1,inactive,
CCc1ccc(/C=C2\SC(=S)N(CCCC(=O)Nc3ccccn3)C2=O)cc1,active: 10 µM,
CCC(CC)c1nnc(NC(=O)C2CC(=O)N(CCc3ccc(F)cc3)C2)s1 (stereo unspecified),"inconclusive: 4.47 µM [inhibitor, full curve, poor fit]",
O=C(O)C1OC(Oc2c(-c3ccc(O)c(O)c3)oc3cc(O)cc(O)c3c2=O)C(O)C(O)C1O (stereo unspecified),active: 35.5 µM,
CCc1nc(NCc2ccco2)c2oc3ccccc3c2n1,active: 79.4 µM,
COc1cc(CC(NC(C)=O)C(=O)NC2CCN(C(=O)c3ccc(C)cc3)CC2)cc(OC)c1 (stereo unspecified),inactive,
COc1cc(/C=C(/C#N)c2nc3ccccc3[nH]2)ccc1OCC(=O)Nc1ccccc1C(C)C,active: 50.1 µM,
COc1ccccc1-c1nn(CCC(=O)Nc2ccc(C)cc2)c2nc(C)cc(C)c12,inactive,
Cc1[nH]n(-c2ccccc2)c(=O)c1/C=N/c1nn[nH]n1,"inconclusive: 31.6 µM [inhibitor, partial curve]",
COc1ccc(S(=O)(=O)Nc2cccc(-c3ccc(N4CCCC4)nn3)c2)cc1F,inactive,
O=C(CCS(=O)(=O)c1ccccc1)Nc1nc2cc3c(cc2s1)OCO3,active: 70.8 µM,
NC(=O)CC(NC(=O)Cc1cccc2ccccc12)c1ccc(N2CCCCCC2)c([N+](=O)[O-])c1 (stereo unspecified),"inconclusive: 89.1 µM [inhibitor, single point]",
Cc1ccc(S(=O)(=O)Nc2ccc(Nc3ccccc3)cc2)cc1,,inconclusive: -62.3% [inhibitor]
CCOc1ccc2nc(NC(=O)c3ccco3)sc2c1,"inconclusive: 89.1 µM [inhibitor, single point]",
COc1ccc(/C=C2\SC(=O)NC2=S)cc1OC,active: 39.8 µM,
Cc1cccc(-n2c(C)cc(/C=N\NC(=O)c3cccs3)c2C)c1,"inconclusive: 44.7 µM [inhibitor, partial curve]",
O=C(Nc1ccccc1)c1sccc1Oc1ccc([N+](=O)[O-])cc1F,active: 25.1 µM,
O=c1c(-c2ccc(O)cc2)coc2c([C@@H]3O[C@H](CO)[C@@H](O)[C@H](O)[C@H]3O)c(O)ccc12,inactive,
S=C(Nc1ccccc1)Nc1nc2ccccc2n1CCOc1ccccc1,active: 6.31 µM,
COc1ccc(N2CSC3=C(C#N)C(c4ccc(OC)c(OC)c4)CC(=O)N3C2)c(OC)c1 (stereo unspecified),"inconclusive: 50.1 µM [inhibitor, partial curve]",
